Laboratory results: the BET-seq Pho4 binding data (Le et al. 2018)
Some of the results follow. The energies were worked out here from pooled read counts, against the library average; single values are noisy.

What follows are sequences tested against T1, Pho4 (S. cerevisiae) (UniProt P07270) (assay: relative binding free energy (BET-seq); higher = weaker binding). Conditions: reference: library average.
T1 sequence: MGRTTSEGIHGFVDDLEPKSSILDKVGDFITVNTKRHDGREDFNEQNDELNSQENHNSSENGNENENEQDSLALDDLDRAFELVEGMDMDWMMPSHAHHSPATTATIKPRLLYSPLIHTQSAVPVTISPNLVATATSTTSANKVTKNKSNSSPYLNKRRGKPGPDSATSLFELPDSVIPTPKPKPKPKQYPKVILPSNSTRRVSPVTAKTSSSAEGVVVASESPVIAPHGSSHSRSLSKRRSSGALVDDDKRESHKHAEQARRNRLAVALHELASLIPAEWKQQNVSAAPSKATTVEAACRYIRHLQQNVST

Sequence	relative binding free energy [kcal/mol]
GGTAACACGTGCGTAG	0.09
TGTATCACGTGACATG	0.05
GGGTTCACGTGGGCGA	0.29
TTTGCCACGTGTGTAG	-0.08
GTGTGCACGTGATTTC	0.03
GAGTTCACGTGTTCTA	0.33
CAAGGCACGTGTGGTT	-0.06
TGGCACACGTGAGAGT	0.32
TGAAGCACGTGGCGTT	-0.25
TTCTTCACGTGCTTGT	0.11
AGTGACACGTGGGACG	-0.07
TATCGCACGTGTTAGA	0.01
ATGCTCACGTGATGGT	0.24
TTTGACACGTGGGACG	-0.08
CGAGGCACGTGTGGTT	-0.01
ATTTACACGTGAGGAT	0.19
TAACGCACGTGTGGTA	-0.18
AGGTACACGTGTTGTG	-0.02
TCTCTCACGTGTTTGG	0.24
CAGTGCACGTGAGTTG	0.3
TATGCCACGTGGGTAG	-0.42
TGTGACACGTGGGCCG	-0.16
TGAGACACGTGCATGG	0.05

Sequence	relative binding free energy [kcal/mol]
TAATCCACGTGTGGTT	0.13
CGATGCACGTGGAGGG	0.07
TAAGACACGTGGAGGG	0.07
AGAGACACGTGTATGT	0.01
TGGCTCACGTGTAGGA	0.03
AGATTCACGTGTGGCT	0.5
AATGACACGTGATAGT	0.06
GCATGCACGTGAAGGT	0.18
GCGTGCACGTGTTCGT	0.01
CTTGGCACGTGGCCGG	-0.22
TATTGCACGTGATTTC	0.24
TCTTTCACGTGGGCTG	0.18
GGGCACACGTGAGGGC	0.32
TTGATCACGTGTGGGT	0.18
AAGGGCACGTGTGTAG	-0.04
GGAGTCACGTGGTGGG	0.06
TTTATCACGTGAAAGG	0.31
GGTAGCACGTGAGCTT	0.24
TTGCTCACGTGAGGCT	0.35
TGTCGCACGTGTAGTT	-0.02
CACTGCACGTGGGTGT	-0.26
TACAACACGTGTTTGT	-0.06
GGCGGCACGTGAATTG	0.13

Sequence	relative binding free energy [kcal/mol]
GAGAACACGTGGATTG	0.2
TATTGCACGTGGTGAA	-0.02
GGTTTCACGTGGGCTG	0.24
GATTACACGTGTGATG	0.16
TAGGTCACGTGGGCGT	-0.15
ATGGACACGTGGTTAG	-0.21
AGAGGCACGTGATGCG	-0.1
TGCAGCACGTGCTGGT	-0.12
TAGGTCACGTGCAAGT	-0.01
GGCTGCACGTGGTTAT	-0.01
TGCGGCACGTGGCGTA	-0.31
GGATTCACGTGTTTCT	0.35
TGTGGCACGTGGCGCA	-0.2
CCGTTCACGTGTTGGG	0.24
AAGGTCACGTGGATAA	0.14
GGGGTCACGTGGAGAC	0.13
ATGTTCACGTGGAGGC	0.2
AGGATCACGTGGGGCA	-0.16
GTCCACACGTGTGGTG	0.18
GGTCTCACGTGTAATT	0.33
TAAAGCACGTGGGGAA	-0.24
ATCATCACGTGAGTGA	0.41
AGAAGCACGTGGATGT	-0.04

Sequence	relative binding free energy [kcal/mol]
ATGGGCACGTGAGTTT	0.08
ATGCTCACGTGAGTAG	0.38
TAAATCACGTGGGATA	0.13
TTTCCCACGTGGTTGG	-0.02
GGGTTCACGTGAGGCA	0.33
ATTGTCACGTGTGCGG	0
GTTTGCACGTGCACGG	-0.19
AGTCTCACGTGTAGTT	0.2
TCGGACACGTGGGAAG	0.09
TAGCACACGTGGAGGG	0.07
GATAGCACGTGGTTGA	-0.03
TTTATCACGTGACGTG	0.21
GTCGTCACGTGGGCGG	-0.05
CATGGCACGTGGATGG	-0.07
TTTGACACGTGATGTT	0.22
CGCGTCACGTGTGTGA	-0.09
ATATTCACGTGGGGCG	0.11
TATTTCACGTGGACTT	0.3
TTATTCACGTGCGTAG	0.15
TATTGCACGTGGTGAC	-0.03
CGGGCCACGTGGAAGT	0.06
ACTTACACGTGTTTTT	0.11
CTAATCACGTGGTGAT	0.14

Sequence	relative binding free energy [kcal/mol]
AGATTCACGTGAGGTC	0.55
AGTATCACGTGAAAGA	0.43
AGGGCCACGTGGTGGC	-0.22
GTGGACACGTGAATTA	0.43
GCGTTCACGTGCGGAT	0.38
TCTAGCACGTGGGTCG	-0.23
CGGCTCACGTGCGTGG	0.09
CGTTGCACGTGTTGTG	0.03
CGGTCCACGTGGTGGC	-0.05
TAGTTCACGTGTCTGC	0.37
TCAGGCACGTGTTCAG	0.01
CTTAGCACGTGTAAGT	-0.05
CGTGGCACGTGTTTAG	-0.07
ATTAACACGTGGCGTG	0.01
ATTTTCACGTGTGTTG	0.27
GGCTGCACGTGCATGT	0.08
ATTGTCACGTGGGCCG	0
AATTGCACGTGGATGT	-0.1
TTTGGCACGTGATGAA	-0.06
ACATTCACGTGGTATG	0.28
ACTGGCACGTGTGTGA	-0.13
TATTGCACGTGGGGGA	-0.16
ACGTGCACGTGGTCGG	0.04
